Test results: PubChem BioAssay AID1468 (National Center for Advancing Translational Sciences (NCATS), 2008)
Hit rate of the full screen: of about 280,000 compounds, about 1,100 (0.39%) were called active. Inconclusive means that the source gave no clear call. Such entries were picked first, then a sample of the others. Calls follow the shape of the dose curve; as a rule, active = well fitted inhibition curve with a large enough effect; inconclusive = small, poorly fitted or top-dose-only effect, or effect the other way; inactive = flat fitted curve, though single readings scatter. Potencies of inconclusive entries are doubtful fits and often do not repeat.

These compounds were tested against Microtubule-associated protein tau (Homo sapiens) (UniProt P10636) (assay: qHTS for Inhibitors of Tau Fibril Formation, Fluorescence Polarization). Settings: K18 P301L tau heparin fibrillization, Alexa594 FP, 6 h; series mostly up to 57.7 µM; activity, negative = inhibition: at the top concentration.
Procedure, shortened: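 Recombinant K18 P301L […], labeled with Alexa 594 at 0.24 uM over 15 uM unlabeled; heparin inducer 20 uM final; 37 C, 6 hr; FP endpoint.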
% is scaled to controls: 0 for no effect and ±100 for the full control effect; potency is read from the fitted curve at half-maximal effect; tags tell the direction and shape of the fitted curve.
Also: nearly all actives have a fitted effect of over 55% in size.

Sequence of UniProt P10636 (P10636 whole entry, looked up): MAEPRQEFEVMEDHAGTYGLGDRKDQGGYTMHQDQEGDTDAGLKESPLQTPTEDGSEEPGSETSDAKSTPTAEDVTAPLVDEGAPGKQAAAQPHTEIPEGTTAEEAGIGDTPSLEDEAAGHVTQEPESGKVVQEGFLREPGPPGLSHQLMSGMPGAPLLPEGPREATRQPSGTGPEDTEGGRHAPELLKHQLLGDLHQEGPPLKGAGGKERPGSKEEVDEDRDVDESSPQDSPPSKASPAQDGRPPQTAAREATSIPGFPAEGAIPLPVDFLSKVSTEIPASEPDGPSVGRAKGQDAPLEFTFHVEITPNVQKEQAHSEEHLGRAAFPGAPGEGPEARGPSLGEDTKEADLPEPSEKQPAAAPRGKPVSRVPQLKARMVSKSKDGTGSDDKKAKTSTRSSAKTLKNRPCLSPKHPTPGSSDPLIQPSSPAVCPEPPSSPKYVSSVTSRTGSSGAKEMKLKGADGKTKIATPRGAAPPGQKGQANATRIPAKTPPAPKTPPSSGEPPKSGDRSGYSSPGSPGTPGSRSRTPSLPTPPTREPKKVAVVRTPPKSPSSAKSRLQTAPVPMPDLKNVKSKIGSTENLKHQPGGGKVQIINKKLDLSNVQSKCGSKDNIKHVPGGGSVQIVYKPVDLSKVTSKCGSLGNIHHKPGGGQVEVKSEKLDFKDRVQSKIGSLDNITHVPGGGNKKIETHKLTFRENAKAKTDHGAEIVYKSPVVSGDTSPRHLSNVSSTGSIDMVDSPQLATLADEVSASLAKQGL

Potency, inconclusive:
CC1CCc2c(sc(NC(=O)COc3ccccc3C(C)(C)C)c2C#N)C1 (stereo not given) 17.8 µM [inhibitor, partial curve]
Cc1oc2cc([N+](=O)[O-])c(O)c([N+](=O)[O-])c2c1C(=O)c1ccc(Br)cc1 39.8 µM [inhibitor, single point]
O=C(N/N=C/c1cccnc1)c1cc2c(ccc3ccccc32)o1 2 µM [inhibitor, partial curve, poor fit]
Cc1c(Cl)cccc1NC(=O)Cn1cc2c(n1)CCCC2 44.7 µM [inhibitor, single point]
CCC(C)N1C(=O)CCC1C(=O)O (stereo not given) 3.55 µM [inhibitor, single point]
N=C1c2c(cc(=O)n3c2[nH]c2ccccc23)CN1CCN1CCOCC1 3.98 µM [activator, single point]
Cc1cccc(CNC(=O)c2ccc(NC(=O)N3CCSc4ccccc43)cc2)c1 44.7 µM [inhibitor, single point]
COc1ccc(OC)c(C(=O)c2ccc(C(=O)Nc3ccc4ccccc4c3)cc2)c1 14.1 µM [inhibitor, partial curve]
COc1ccc(-n2nnnc2SCC(=O)Nc2ccc3c(c2)OCCO3)cc1OC 25.1 µM [inhibitor, single point]
COC(=O)c1ccc(N2C(=O)CC(N(C)Cc3ccccc3)C2=O)cc1 (stereo not given) 44.7 µM [inhibitor, single point]
Cc1ccccc1CSc1n[nH]c(NS(=O)(=O)c2ccccc2)n1 25.1 µM [inhibitor, partial curve, poor fit]
Cc1ccc(NC(=O)Cn2cc(S(=O)(=O)N3CCC(C)CC3)c3ccccc3c2=O)c(Br)c1 20 µM [inhibitor, partial curve, poor fit]
COc1ccc(-c2nnc(SCC(=O)N(C)Cc3ccccc3)o2)cc1OC 28.2 µM [inhibitor, single point]
CS(=O)(=O)Nc1ccc(C2=NN(S(=O)(=O)c3ccccc3)C(c3cccs3)C2)cc1 (stereo not given) 20 µM [inhibitor, partial curve]
CC(C)OCCCNC(=O)CNC(=O)c1ccc(Cl)c(Cl)c1 3.98 µM [inhibitor, single point]
Cc1cc(N=Cc2c(O)n(-c3cccc(Cl)c3)c(=O)c3ccccc23)no1 7.94 µM [activator, partial curve]
O=C(O)/C=C/C(=O)N1CCN(C(c2ccccc2)c2ccccc2)CC1 44.7 µM [inhibitor, single point]
CCOc1ccc(C(=O)OCCN(C)C)cc1 0.251 µM [inhibitor, full curve, poor fit]
COCCOC(=O)C1=C(C)N(Cc2ccccc2)C(=O)NC1c1cccc(OC)c1OC (stereo not given) 0.158 µM [activator, full curve, poor fit]
COc1cc(/C=N/NC(=S)NC2CC3CCC2C3)ccc1O (stereo not given) 0.708 µM [activator, partial curve]
Cc1ccc2[nH]c3c(=O)n(CC(=O)NCCc4ccc(Cl)cc4)ncc3c2c1 39.8 µM [inhibitor, single point]
CC(=O)OCC1=C(C(=O)O)N2C(=O)C(NC(=O)c3ccc(COc4cccc(Cl)c4Cl)o3)C2SC1 (stereo not given) 39.8 µM [inhibitor, single point]
O=C(/C=C/c1ccc([N+](=O)[O-])cc1)c1cccnc1 3.16 µM [activator, full curve]
COc1cccc2cc(-c3nnc(SCC(=O)Nc4cc(C(F)(F)F)ccc4Cl)n3N)oc12 31.6 µM [inhibitor, partial curve]
O=C(O)/C=C\C(=O)Nc1ccc(N2CCN(c3ccc(Cl)c(Cl)c3)CC2)cc1 5.01 µM [inhibitor, partial curve, poor fit]
CCOC(=O)c1cccc(NC(=O)CCc2ccccc2)c1 44.7 µM [inhibitor, single point]
COC(=O)c1cc(OC)c(OC)cc1NC(=O)Nc1ccccc1OC 8.91 µM [inhibitor, single point]
O=C1c2ccccc2C2=Nc3ccccc3SC(c3ccccc3F)C12 (stereo not given) 28.2 µM [inhibitor, single point]
COc1ccc(C(c2nnnn2Cc2ccc(F)cc2)N2CCN(c3ccc(OC)cc3)CC2)cc1 (stereo not given) 12.6 µM [activator, partial curve, poor fit]
COc1ccc(-c2cc(C(=O)OCC(=O)c3c(N)n(C)c(=O)n(C)c3=O)c3ccccc3n2)cc1 7.08 µM [inhibitor, partial curve]
O=S(=O)(Nc1nc2ccccc2nc1N1CCN(c2ccccn2)CC1)c1ccc(Cl)cc1 7.94 µM [activator, single point]
O=C(Nc1nc(-c2ccc3ccccc3c2)cs1)C1CCN(S(=O)(=O)c2cccs2)CC1 31.6 µM [inhibitor, partial curve]
C=CCSc1nnc(NC(=O)CSc2nnc(C)s2)s1 20 µM [inhibitor, single point]
COc1ccc(Oc2nc3ccccc3n3cccc23)cc1 28.2 µM [inhibitor, partial curve]
COc1ccc(Nc2nc(-c3c[nH]c4ccccc34)cs2)cc1 22.4 µM [inhibitor, partial curve]
COc1ccc(-c2nn(-c3ccccc3)cc2/C=N/Nc2ccc(S(N)(=O)=O)cc2[N+](=O)[O-])cc1OC 2.82 µM [activator, partial curve, poor fit]
CC(/C=N/NC(=O)c1ccncc1)=C\c1ccc(C(C)C)cc1 12.6 µM [inhibitor, partial curve]
O=C(CN1C(=O)COc2ccc(S(=O)(=O)NC3CCCC3)cc21)Nc1ccc(Cl)cc1 20 µM [inhibitor, partial curve]
CC(=O)Nc1ccc(NC(=O)CSc2nc3ccccc3nc2N2CCCCC2)cc1 39.8 µM [inhibitor, single point]
CCc1nn(CC(=O)Nc2ccc(Br)c(C)c2)c(=N)s1 17.8 µM [inhibitor, partial curve]
O=C(Cc1nc2ccccc2[nH]1)c1ccc([N+](=O)[O-])cc1 44.7 µM [inhibitor, single point]
NC(=O)c1cc(NC(=O)c2cc(Br)c(Br)s2)cc(C(N)=O)c1 3.16 µM [inhibitor, partial curve, poor fit]
Cc1c(C(=O)Nc2cccc(Cl)c2)oc2ccc(S(=O)(=O)N3CCCCCC3)cc12 28.2 µM [inhibitor, partial curve]
Fc1ccc(OCCOCCOc2cccc3[nH]ccc23)cc1 14.1 µM [activator, partial curve]
Cc1ccc(NS(=O)(=O)c2ccc(NC(=O)c3cccc(NC(=O)C(C)C)c3)cc2)cc1 31.6 µM [inhibitor, partial curve]
Cc1ccc2nc(NC(=O)c3cccc(-c4cc5ccccc5oc4=O)c3)sc2c1 28.2 µM [inhibitor, partial curve, poor fit]

Potency, inactive:
CCc1ccc(NS(=O)(=O)c2ccc3[nH]cc(C(=O)N(C)Cc4ccco4)c(=O)c3c2)cc1

Potency, active:
COc1ccc(-c2cc(-c3ccccc3)c(C#N)c(SCC(=O)Nc3ncc(C)s3)n2)cc1 28.2 µM

activity, negative = inhibition, inactive:
COc1ccc(Cc2nc(=S)[nH][nH]2)cc1Br 3.62%
Cc1ccc(CNC(=O)C2CCN(S(=O)(=O)c3c(C)noc3/C=C/c3ccco3)CC2)cc1 9.6%
CCCC(=O)Nc1ncnc2c1ncn2C1OC2COP(=O)(O)OC2C1OC(=O)CCC (stereo not given) 1.45%
CCc1cc2c(SCC(=O)Nc3cc(C)on3)ncnc2s1 -0.417%
CC(C)C1C(=O)NC(=S)N1S(=O)(=O)c1ccc(C(C)(C)C)cc1 (stereo not given) -2.49%
CC1CCN(Cc2ccc(NC(=O)CC3Oc4ccccc4NC3=O)cc2)CC1 (stereo not given) -3.15%
CNC(=O)c1c(NC(=O)c2ccc(S(=O)(=O)N3CCCCC3C)cc2)sc2c1CCC2 (stereo not given) -8.89%
C=CCC(O)CC1C2C(CC(O)CC=C)C3C1C3C2OC(C)(C)C (stereo not given) -1.08% [at 11.6 µM]
Cc1ccc(-n2nc(C(=O)N3CCN(c4cccc(C(F)(F)F)c4)CC3)c3c4ccccc4n(C)c3c2=O)cc1 -12.7%
Cc1cc(NC(=O)CSc2nnc(NC(=O)C3CC(=O)N(c4ccccc4C)C3)s2)no1 (stereo not given) -8.18%
COc1ccccc1/C=N/NC(=O)CO -5.08%
c1ccc2c(c1)Nc1ccncc1S2 14.5%
CCc1ccc(-c2nc(CN3CCC(C(=O)NCc4ccccc4OC)CC3)c(C)o2)cc1 -2.43%
Cc1cccc(NS(=O)(=O)c2ccc(NC(=O)N3CCCC3)cc2)c1 3.53%
CCOC(=O)CSc1nc2sc3c(c2c(=O)n1-c1ccccc1)CC(C(C)C)OC3 (stereo not given) -2.43%
CCOC(=O)N1CCC(N2CCCC(C(=O)c3cccc(OC(C)C)c3)C2)CC1 (stereo not given) 3.85%
S=C1SCN(Cc2cccnc2)CN1Cc1cccnc1 -3.84%
